The other results are listed elsewhere or left out. Interaction screen of human proteins with wild-type SARS-CoV-2 proteins by split-DHFR complementation in yeast, 1 µg/mL methotrexate. Value = fitness of the pair (three or more lineages) minus that of the viral protein without a human partner, on a scale set by negative (0) and fused positive (1) controls, mean of up to three cultures; higher = more likely to interact. Active = false discovery rate below 0.05 (one-sided t-test) in at least one culture. Nearly all pairs are not hits, and differences among them are mostly noise (correlation between cultures about 0.3); most hits were seen in one culture only. Human sequences are the Swiss-Prot entries looked up by gene name; the clone may be another isoform. NSP2 values were corrected by the authors for a growth advantage. Listed are human proteins with a hit and a random twelfth of the others.
Key:
Experiment in all cases: yeast fitness gain over the viral ORF with no human partner (scaled fitness); higher = more likely to interact
SARS-CoV-2 M = biological target: SARS-CoV-2 M
Description: (§1)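 Split mouse DHFR complementation in pooled diploid yeast: human ORFeome clones carry one fragment and viral ORFs the other; barcoded lineages compete in 1 µg/mL methotrexate and fitness is read by barcode sequencing in up to three cultures.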

SARS-CoV-2 NSP10 = biological target: SARS-CoV-2 NSP10
Description: as §1

SARS-CoV-2 NSP12 = biological target: SARS-CoV-2 NSP12
Description: as §1

SARS-CoV-2 NSP13 = biological target: SARS-CoV-2 NSP13
Description: as §1

SARS-CoV-2 NSP14 = biological target: SARS-CoV-2 NSP14
Description: as §1

SARS-CoV-2 NSP16 = biological target: SARS-CoV-2 NSP16
Description: as §1

SARS-CoV-2 NSP2 = biological target: SARS-CoV-2 NSP2
Description: as §1

SARS-CoV-2 NSP4 = biological target: SARS-CoV-2 NSP4
Description: as §1

SARS-CoV-2 NSP5 = biological target: SARS-CoV-2 NSP5
Description: as §1

SARS-CoV-2 NSP6 = biological target: SARS-CoV-2 NSP6
Description: as §1

SARS-CoV-2 NSP7 = biological target: SARS-CoV-2 NSP7
Description: as §1

SARS-CoV-2 NSP8 = biological target: SARS-CoV-2 NSP8
Description: as §1

SARS-CoV-2 NSP9 = biological target: SARS-CoV-2 NSP9
Description: as §1

SARS-CoV-2 ORF10 = biological target: SARS-CoV-2 ORF10
Description: as §1

SARS-CoV-2 ORF3B = biological target: SARS-CoV-2 ORF3B
Description: as §1

SARS-CoV-2 ORF6 = biological target: SARS-CoV-2 ORF6
Description: as §1

SARS-CoV-2 ORF7A = biological target: SARS-CoV-2 ORF7A
Description: as §1

SARS-CoV-2 ORF7B = biological target: SARS-CoV-2 ORF7B
Description: as §1

SARS-CoV-2 ORF8 = biological target: SARS-CoV-2 ORF8
Description: as §1

SARS-CoV-2 ORF9B = biological target: SARS-CoV-2 ORF9B
Description: as §1

[1] = biological target: SARS-CoV-2 ORF9Bwu (the 73-codon ORF)
Description: as §1

SARS-CoV-2 S = biological target: SARS-CoV-2 S
Description: as §1

SARS-CoV-2 N = biological target: SARS-CoV-2 N
Description: as §1

SARS-CoV-2 NSP1 = biological target: SARS-CoV-2 NSP1
Description: as §1

SARS-CoV-2 ORF3A = biological target: SARS-CoV-2 ORF3A
Description: as §1

Measured: yeast fitness gain

B1: CLDN14, O95500 (protein)
chain: MASTAVQLLGFLLSFLGMVGTLITTILPHWRRTAHVGTNILTAVSYLKGLWMECVWHSTGIYQCQIYRSLLALPQDLQAARALMVISCLLSGIACACAVIGMKCTRCAKGTPAKTTFAILGGTLFILAGLLCMVAVSWTTNDVVQNFYNPLLPSGMKFEIGQALYLGFISSSLSLIGGTLLCLSCQDEAPYRPYQAPPRATTTTANTAPAYQPPAAYKDNRAPSVTSATHSGYRLNDYV
inactive: SARS-CoV-2 M 0.085 | SARS-CoV-2 NSP10 = -0.119 | SARS-CoV-2 NSP12 = -0.0781 | SARS-CoV-2 NSP13 = 0.0553 | SARS-CoV-2 NSP14 = 0.0265 | SARS-CoV-2 NSP16 = 0.0733 | SARS-CoV-2 NSP2 = -0.25 | SARS-CoV-2 NSP4 = -0.0645 | SARS-CoV-2 NSP5 = -0.0605 | SARS-CoV-2 NSP6 = -0.409 | SARS-CoV-2 NSP7 = 0.206 | SARS-CoV-2 NSP8 = -0.0136 | SARS-CoV-2 NSP9 = -0.32 | SARS-CoV-2 ORF10 = 0.0869 | SARS-CoV-2 ORF3B 0.0149 | SARS-CoV-2 ORF6 = -0.0554 | SARS-CoV-2 ORF7A 0.0733 | SARS-CoV-2 ORF7B -0.0276 | SARS-CoV-2 ORF8 = -0.0193 | SARS-CoV-2 ORF9B -0.0587 | [1] -0.0359 | SARS-CoV-2 S -0.0651

B2: CMIP, Q8IY22 (protein)
chain: MDVTSSSGGGGDPRQIEETKPLLGGDVSAPEGTKMGAVPCRRALLLCNGMRYKLLQEGDIQVCVIRHPRTFLSKILTSKFLRRWEPHHLTLADNSLASATPTGYMENSVSYSAIEDVQLLSWENAPKYCLQLTIPGGTVLLQAANSYLRDQWFHSLQWKKKIYKYKKVLSNPSRWEVVLKEIRTLVDMALTSPLQDDSINQAPLEIVSKLLSENTNLTTQEHENIIVAIAPLLENNHPPPDLCEFFCKHCRERPRSMVVIEVFTPVVQRILKHNMDFGKCPRLRLFTQEYILALNELNAGMEVVKKFIQSMHGPTGHCPHPRVLPNLVAVCLAAIYSCYEEFINSRDNSPSLKEIRNGCQQPCDRKPTLPLRLLHPSPDLVSQEATLSEARLKSVVVASSEIHVEVERTSTAKPALTASAGNDSEPNLIDCLMVSPACSTMSIELGPQADRTLGCYVEILKLLSDYDDWRPSLASLLQPIPFPKEALAHEKFTKELKYVIQRFAEDPRQEVHSCLLSVRAGKDGWFQLYSPGGVACDDDGELFASMVHILMGSCYKTKKFLLSLAENKLGPCMLLALRGNQTMVEILCLMLEYNIIDNNDTQLQIISTLESTDVGKRMYEQLCDRQRELKELQRKGGPTRLTLPSKSTDADLARLLSSGSFGNLENLSLAFTNVTSACAEHLIKLPSLKQLNLWSTQFGDAGLRLLSEHLTMLQVLNLCETPVTDAGLLALSSMKSLCSLNMNSTKLSADTYEDLKAKLPNLKEVDVRYTEAW
inactive: SARS-CoV-2 M 0.0956 | SARS-CoV-2 N -0.451 | SARS-CoV-2 NSP1 = -0.176 | SARS-CoV-2 NSP10 = -0.0659 | SARS-CoV-2 NSP12 = -0.0294 | SARS-CoV-2 NSP13 = 0.0315 | SARS-CoV-2 NSP14 = -0.693 | SARS-CoV-2 NSP16 = -0.371 | SARS-CoV-2 NSP2 = -0.419 | SARS-CoV-2 NSP6 = 0.0636 | SARS-CoV-2 NSP7 = 0.00602 | SARS-CoV-2 NSP8 = -0.044 | SARS-CoV-2 ORF10 = 0.0501 | SARS-CoV-2 ORF3A -0.102 | SARS-CoV-2 ORF3B 0.102 | SARS-CoV-2 ORF6 = 0.0185 | SARS-CoV-2 ORF7A -0.157 | SARS-CoV-2 ORF8 = 0.0125 | SARS-CoV-2 ORF9B 0.0974 | [1] 0.0181 | SARS-CoV-2 S 0.0508

B3: EPHA8, P29322 (protein)
chain: MAPARGRLPPALWVVTAAAAAATCVSAARGEVNLLDTSTIHGDWGWLTYPAHGWDSINEVDESFQPIHTYQVCNVMSPNQNNWLRTSWVPRDGARRVYAEIKFTLRDCNSMPGVLGTCKETFNLYYLESDRDLGASTQESQFLKIDTIAADESFTGADLGVRRLKLNTEVRSVGPLSKRGFYLAFQDIGACLAILSLRIYYKKCPAMVRNLAAFSEAVTGADSSSLVEVRGQCVRHSEERDTPKMYCSAEGEWLVPIGKCVCSAGYEERRDACVACELGFYKSAPGDQLCARCPPHSHSAAPAAQACHCDLSYYRAALDPPSSACTRPPSAPVNLISSVNGTSVTLEWAPPLDPGGRSDITYNAVCRRCPWALSRCEACGSGTRFVPQQTSLVQASLLVANLLAHMNYSFWIEAVNGVSDLSPEPRRAAVVNITTNQAAPSQVVVIRQERAGQTSVSLLWQEPEQPNGIILEYEIKYYEKDKEMQSYSTLKAVTTRATVSGLKPGTRYVFQVRARTSAGCGRFSQAMEVETGKPRPRYDTRTIVWICLTLITGLVVLLLLLICKKRHCGYSKAFQDSDEEKMHYQNGQAPPPVFLPLHHPPGKLPEPQFYAEPHTYEEPGRAGRSFTREIEASRIHIEKIIGSGDSGEVCYGRLRVPGQRDVPVAIKALKAGYTERQRRDFLSEASIMGQFDHPNIIRLEGVVTRGRLAMIVTEYMENGSLDTFLRTHDGQFTIMQLVGMLRGVGAGMRYLSDLGYVHRDLAARNVLVDSNLVCKVSDFGLSRVLEDDPDAAYTTTGGKIPIRWTAPEAIAFRTFSSASDVWSFGVVMWEVLAYGERPYWNMTNRDVISSVEEGYRLPAPMGCPHALHQLMLDCWHKDRAQRPRFSQIVSVLDALIRSPESLRATATVSRCPPPAFVRSCFDLRGGSGGGGGLTVGDWLDSIRMGRYRDHFAAGGYSSLGMVLRMNAQDVRALGITLMGHQKKILGSIQTMRAQLTSTQGPRRHL
inactive: SARS-CoV-2 M 0.0653 | SARS-CoV-2 NSP1 = 0.0744 | SARS-CoV-2 NSP10 = 0.0229 | SARS-CoV-2 NSP12 = -0.00895 | SARS-CoV-2 NSP13 = 0.0113 | SARS-CoV-2 NSP14 = 0.131 | SARS-CoV-2 NSP2 = -0.135 | SARS-CoV-2 NSP4 = 0.0481 | SARS-CoV-2 NSP5 = -0.036 | SARS-CoV-2 NSP6 = 0.0476 | SARS-CoV-2 NSP7 = 0.00287 | SARS-CoV-2 NSP8 = 6.9e-05 | SARS-CoV-2 ORF10 = 0.0465 | SARS-CoV-2 ORF3B 0.0514 | SARS-CoV-2 ORF6 = 0.0601 | SARS-CoV-2 ORF7A -0.0223 | SARS-CoV-2 ORF7B 0.101 | SARS-CoV-2 ORF8 = 0.044 | SARS-CoV-2 ORF9B 0.00608 | SARS-CoV-2 S -0.118
